The values that follow come from PubChem BioAssay AID463173 (ICCB-Longwood Screening Facility, Harvard Medical School, 2010).

Among all 52,000 compounds or so, about 4,300 (8.3%) were called active. Rule as the data show it: active = survival mostly below about 52% (no sharp cut-off); inactive = mostly above about 56%. The list shows a part of the results.

In the assay the test system is DeltatarO mutant. Briefly: growth inhibition of S. aureus wild type versus tarO mutant, primary screen, teichoic acid synthesis inhibitors, RN4220, OD600 (AID 463173). To be noted: OD600, 18 h, hits give low values, screened at 18.75 µg/mL (by protocol).
With `CCn1nnc2cc(C(=O)Nc3cccc(C)c3C)ccc21`, the survival was inactive: 72%.

Consider `Cc1ccc(C)c(N2CCN(S(=O)(=O)c3csc(C(N)=O)c3)CC2)c1`, for which the survival is inactive: 72%.

On to `COc1ccc(NC(=O)C2CCC(CNS(=O)(=O)c3cccs3)CC2)cc1OC` (stereo not given), for which the survival was inactive: 112%. The figure for `Clc1ccccc1-c1nnc(-c2ccccc2CNc2ccccc2)o1` is inactive: 74%; for `COc1ccc(Cc2c(C)nn(-c3nc(C)c(C(=O)Nc4ccc(C)cc4C)s3)c2C)cc1` it is inactive: 69%. `COc1cc(C2c3c(-c4ccccc4O)n[nH]c3C(=O)N2CCO)ccc1OCC(C)C` (stereo not given): the survival is inactive: 99%.

Take `Cc1cccc(Oc2ccc(NC(=O)CCC(=O)OCC(=O)c3ccc(Br)cc3)cc2)c1C`: the survival was inactive: 68%. In the case of `Cc1ccc(C)c(CSc2cn(CCNC(=O)c3ccccc3F)c3ccccc23)c1`, the survival is active: 35%. Turning to `COc1cccc(C(C(=O)NCc2ccccc2)N(C(=O)Cn2nnc3ccccc32)c2cccc(C(C)=O)c2)c1` (stereo not given), the survival was active: 44%. Take `O=C(O)C1CSC2(CCN(Cc3ccccc3)CC2)N1` (stereo not given): the survival was inactive: 99%.

As for `Cn1c(SCCC(=O)O)nnc1-c1ccncc1`, the survival is inactive: 95%. Consider `O=C(Nc1ccccc1)C1CCCN1C(=O)NCc1ccccc1` (stereo not given), for which the survival is inactive: 104%. The figure for `CCn1cc(C(=O)NCc2ccc(F)cc2)c(=O)c2cc(S(=O)(=O)N(C)C)ccc21` is inactive: 81%; for `COc1cc(OC)c(NC(=O)CCNS(=O)(=O)c2ccc3c(c2)oc(=O)n3C)cc1Cl` it is inactive: 83%.

Regarding `CC(=O)N1CCCc2cc(S(=O)(=O)N(Cc3ccccc3)C(C)C)ccc21`, the survival is inactive: 80%.

For `COc1ccc(-n2c(CCC(=O)O)ccc2-c2ccccc2)c(OC)c1`, the survival is active: 47%.

As for `COC(=O)COc1cc(C)nc(SC)n1`, the survival is inactive: 62%. Consider `CCCCc1ccc(NC(=O)CSc2nnc3[nH]c(=O)cc(C)n23)cc1`, for which the survival was inactive: 95%. The figure for `CCCN1CCN(CCCNC(=O)c2ccc(CS(=O)c3ccc(OC)cc3)o2)CC1` (stereo not given) is inactive: 97%. As for `CCN(CC)CCNC(=O)c1cc2c(=O)oc3ccc(C)cc3c2s1`, the survival was inactive: 90%. Consider `COc1ccc(Cc2nnc(SCC(=O)N3CCCC3)o2)cc1`, for which the survival was inactive: 83%. The figure for `Cc1ccc(NC(=O)Cn2nnc3sc4c(c3c2=O)CCCC4)c(C)c1` is inactive: 86%; for `O=C(/C=C/c1ccc(Cl)cc1)Nc1nc(-c2cccs2)ns1` it is inactive: 61%. For `Cc1cc(C)c(Cn2c3ccccc3c3cnn(CC(=O)NCC(C)c4ccccc4)c(=O)c32)c(C)c1` (stereo not given), the survival is inactive: 77%. Regarding `COc1cc2c(cc1OC)C(COc1ccccc1OC)N(C(=O)c1ccccc1OC)CC2` (stereo not given), the survival is inactive: 80%.

Turning to `O=S(=O)(c1ccccc1)N1CCN(S(=O)(=O)N2CCCCC2)CC1`, the survival was inactive: 93%.

Take `CCc1cccc(NC(=O)CCS(=O)(=O)c2cc3c4c(c2)CCN4C(=O)CC3)c1`: the survival is inactive: 76%. In the case of `Cc1cccc(C(=O)Nc2cccc(OCc3cc(=O)n4ccccc4n3)c2)c1`, the survival is inactive: 96%. On to `COc1cc2c(=O)c(S(=O)(=O)c3ccccc3)cn(CC(=O)Nc3ccccc3C)c2cc1OC`, for which the survival is inactive: 82%. On to `COc1cc(OC)c(NC(=O)c2c3c(nc4ccccc24)C(=O)N(C2CCCCC2)C3)cc1Cl`, for which the survival is inactive: 60%. Take `CCN1C(=O)C2C(c3cccs3)NC(C)(C(=O)OC)C2C1=O` (stereo not given): the survival was inactive: 82%. Regarding `Cc1cc(C)c(NC(=O)Cn2c(=O)n(Cc3ccccc3)c(=O)c3c(C)c(C(=O)N(C)C)sc32)c(C)c1`, the survival is inactive: 112%. Consider `CCC1CCCCN1Cc1cn2c(-c3ccc(Br)cc3)nnc2s1` (stereo not given), for which the survival was inactive: 80%.

As for `CCS(=O)(=O)N1CCc2cc(C(=O)Nc3ccc(OC)cc3OC)ccc21`, the survival was active: 44%.

Take `CC(=O)c1cccc(NC(=O)c2nc(-c3ccccc3)n(-c3cccc(C)c3)n2)c1`: the survival is inactive: 64%. For `CCOc1ccccc1NC(=O)CN1CCN(S(=O)(=O)c2ccc(Br)cc2)CC1` the value was inactive: 92%; for `Cc1ccc(CNC(=O)CSC2=Nc3ccccc3C3=NC(C)C(=O)N23)cc1` (stereo not given), inactive: 71%. In the case of `Cc1ccc2occ(CC(=O)N3CCN(c4cccc(Cl)c4)CC3)c2c1`, the survival was inactive: 92%.

Regarding `CCCN1CCN(CCCNC(=O)Cn2c(-c3cccs3)cc3cc(Cl)ccc32)CC1`, the survival is inactive: 80%. The figure for `Cc1cc(Cl)ccc1NC(=O)c1cc2ccccn2n1` is inactive: 69%; for `NC(=O)c1c(NC(=O)CN(C(=O)c2cccs2)C2CCCC2)sc2c1CCCC2` it is inactive: 78%; for `CCOC(=O)c1ccccc1NC(=O)c1nn(C)c2c1COc1ccccc1-2` it is inactive: 59%. As to `CC(=O)Nc1cccc(NC(=O)C(=O)NCCc2csc3nc(-c4ccccc4F)nn23)c1`, the survival is inactive: 64%.

For `COc1ccccc1N1CCN(S(=O)(=O)c2ccc(-c3cnc(C4CC4)o3)cc2)CC1`, the survival was inactive: 113%.

In the case of `CC(C)CCNC(=O)c1cn(C)c2ccc(S(=O)(=O)N3CCOCC3)cc2c1=O`, the survival is inactive: 77%. With `Cc1ccc(OCc2nnc(-c3ccccc3)o2)cc1`, the survival is inactive: 54%.

With `Cc1ccc(NC(=O)C2CCCN(S(=O)(=O)c3ccc4c(c3)CCCC(=O)N4)C2)cc1Cl` (stereo not given), the survival is inactive: 88%. For `Cc1ccc(Cl)cc1N1CCN(C(=O)C2CCCN(Cc3nc(-c4cccc(Cl)c4)oc3C)C2)CC1` (stereo not given), the survival was inactive: 66%. On to `CCCCNc1nc2c(c(=O)n(Cc3ccccc3)c(=O)n2C)n1C`, for which the survival was inactive: 66%. The figure for `COc1ccc(N(C)C(=O)c2cc3c(s2)-c2ccccc2OC3)cc1` is active: -2%; for `COc1cc(OC)c(OC)cc1/C=C/c1nc2ccccc2c(=O)n1-c1ccc(Br)c(C)c1` it is inactive: 78%; for `Cc1cc(C(=O)Nc2cccc(C)c2C)c2c(C)nn(-c3cccc(F)c3)c2n1` it is inactive: 94%. For `O=C(c1ccc(Cl)cc1)c1cn(Cc2ccccc2)c2cc3c(cc2c1=O)OCCO3`, the survival is inactive: 76%. As to `Cc1ccc(NC(=O)Cn2c(=O)ccc3cc(S(=O)(=O)N4CCCC4)ccc32)cc1N(C)C`, the survival was active: 32%. For the compound `O=C(NCc1ccc(Cl)cc1)c1ccc2c(c1)N(Cc1ccccc1F)C(=O)c1ccccc1S2=O` (stereo not given), the survival was inactive: 114%. For `CCc1ccc(CNC(=O)c2ccc(CS(=O)(=O)Cc3cccc(C)c3)o2)cc1`, the survival is inactive: 80%.

For `COc1ccc(CCNC(=O)C(=O)NCC(c2cccnc2)N2CCN(c3ccccc3)CC2)cc1` (stereo not given), the survival is inactive: 100%. For `CCC(C(=O)NCCc1ccc(Cl)cc1)n1ccc2cc(S(=O)(=O)N3CCCCC3)ccc21` (stereo not given), the survival is inactive: 103%. Consider `COc1ccc(C(=O)N2CCN(c3nc4c(C)c(Cl)ccc4s3)CC2)c(OC)c1`, for which the survival was inactive: 98%. As to `CCOc1ccc(NC(=O)CN(C)S(=O)(=O)c2ccc3[nH]c4c(c3c2)CCCC4)cc1`, the survival was inactive: 65%. As to `Cc1cc(-c2ccc(S(=O)(=O)Nc3cccc(Cl)c3C)cc2)on1`, the survival is inactive: 94%. On to `CC(C)CCNC(=O)c1ccc2c(c1)nc1n2CCCCC1`, for which the survival was inactive: 86%.

In the case of `CCCC(=O)Nc1ccc2nc(SCc3ccc(C)cc3)sc2c1`, the survival is inactive: 107%. Take `COCCNc1ccc(-c2nc(-c3ccccn3)no2)cc1[N+](=O)[O-]`: the survival is active: 43%.

As to `COc1ccc(C)cc1NC(=O)Cc1c(C(=O)O)c(C)cn1C`, the survival was inactive: 68%. Consider `Nc1ccc2oc(Cc3ccc(Cl)cc3)nc2c1`, for which the survival is inactive: 80%. With `CCOc1ccccc1-c1nc(C(N)=O)c2c(n1)n(-c1ccc3c(c1)OCO3)c(=O)n2C`, the survival is inactive: 79%.

`CC(=O)Nc1ccc(S(=O)(=O)N(Cc2ccccc2)Cc2ccccc2)cc1`: the survival was active: 54%. For `CCn1c(=O)cc(SCC(=O)NCc2ccc(C)cc2)c2ccccc21` the value was inactive: 84%; for `O=C(NCc1ccco1)c1ccc2c(c1)N(Cc1ccccc1F)C(=O)c1ccccc1S2(=O)=O`, inactive: 80%. Turning to `C=Cc1ccc(Cn2c(=O)n(CC3CCC(C(=O)NC(C)C)CC3)c(=O)c3sccc32)cc1` (stereo not given), the survival was inactive: 76%. Turning to `CCCCNC(=O)c1ccc2c(c1)NC(=O)C(CS(=O)(=O)Cc1ccc(F)cc1Cl)N2` (stereo not given), the survival was inactive: 74%.

With `COc1cccc(NC(=O)CCN2CCN(CCO)CC2)c1`, the survival is inactive: 158%. `Cc1ccc2cc3cc(C(=O)N(C)c4ccccc4C)oc3nc2c1`: the survival was active: 53%. Regarding `CCc1cccc(N2C(=O)N(Cc3c(F)cccc3Cl)c3ccccc3S2(=O)=O)c1`, the survival is inactive: 92%. Take `CCc1cnc2c(c1SCCC(C)C)c(=O)n(C)c(=O)n2C`: the survival is inactive: 88%. As to `CCOC(=O)c1ccc(NC(=O)c2c(NCc3cc(OC)ccc3OC)sc3c2CCC3)cc1`, the survival is inactive: 80%. For the compound `CC(=O)c1cccc(NC(=O)CSc2nc3c(=O)n(C)c(=O)n(C)c3n2C)c1`, the survival was inactive: 79%. Consider `CC(C)CCn1c(=O)c2sccc2n2c(CCCC(=O)NC(C)c3ccccc3)nnc12` (stereo not given), for which the survival was inactive: 88%. Regarding `Cc1cccc(-n2cnc3cc(C(=O)NC4CCCCCC4)ccc32)c1`, the survival is inactive: 106%. On to `Cc1cccc(OCC(=O)Nc2ccccc2C(=O)OCc2cc(=O)n3nc(C4CC4)sc3n2)c1`, for which the survival is inactive: 86%. Consider `Cc1cccc(N2CCN(c3nc4ccccc4c4nc(-c5cccnc5)nn34)CC2)c1C`, for which the survival was inactive: 81%. In the case of `Cc1ccc(CCNC(=O)c2cc3c(=O)n(C)c4ccccc4c3n2C)cc1`, the survival was inactive: 63%. The figure for `C=CCn1c(N)cc(=O)nc1SCC(=O)NC1CCCCC1` is inactive: 96%. For `CC(=O)c1cc(-c2ccccc2)n(CC(=O)NCc2ccccc2C)c1C` the value was inactive: 65%; for `COC(=O)c1cc2sc(C)cc2n1CC(=O)Nc1ccc(C)cc1Cl`, inactive: 69%; for `CC(C)OCCCNC(=O)c1nn(C)c2c1CSc1ccccc1-2`, inactive: 86%. Consider `CCCOC(=O)c1ccc(Nc2c(C(=O)OCC)cnc3c(C)cc(Cl)cc23)cc1`, for which the survival is active: 11%. As to `COc1ccc(-c2noc(CSc3nnc(-c4ccccc4)n3C)n2)cc1`, the survival was inactive: 62%. As for `COc1ccc(C)cc1NC(=O)CN1CCN(S(=O)(=O)c2ccc(Br)cc2)CC1`, the survival was inactive: 81%.
